Measured values taken from the supplement of paper PMC10126150.
Sequences with one replicate were seen in a single cluster, so their values are uncertain.
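Note: ATP exposure 15 min at 22 °C before imaging.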

Each sequence was assayed on ATP (assay: switch fluorescence ratio, 500 uM ATP over buffer (Cy3 cluster intensity, sum of 5 cycles each) (fold (ratio)); higher = stronger signal-on switching upon ATP binding; sequences stand for … in TCGTCGGCAGCGTCAGATGTGTATAAGAGACAGTTTTTTTTTTTTTTTTTTTTTTTTT…TC). Conditions: aptamer strand: ATP DNA aptamer (quencher-CACCTGGGGGAGTATTGCGGAGGAAGG + anchor), 100 nM annealed; ATP concentration: 500 uM; one replicate.
How it was run: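 Clusters carrying Cy3-labelled switching strands on a modified Illumina MiSeq flow-cell were annealed to 100 nM quencher-labelled ATP aptamer and imaged in selection buffer. They were imaged again after 15 min with 500 uM ATP at 22 °C, over five buffer/ATP cycles with NaOH stripping and re-annealing in between. For each cluster, the fluorescence ratio is the summed Cy3 intensity of the target cycles divided by that of the buffer cycles, averaged per switch-domain sequence. Clusters outside 100-1000 RFU were left out.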
Work on AGTAAGCAGA yielded a switch fluorescence ratio of 1.02.
AAAATTACAG gave a switch fluorescence ratio of 0.97.
GATCCGGTAC was tested, and the switch fluorescence ratio was 4.42.
Work on TGCCACGCAT yielded a switch fluorescence ratio of 1.05.
In the case of TACTGTAT, the switch fluorescence ratio is reported as 1.24.
In the case of TTGTTGGACA, the switch fluorescence ratio is reported as 0.998.
AATGCCTAGT was tested, and the switch fluorescence ratio was 0.945.
For GCTTAGATAT, the switch fluorescence ratio was 1.01.
Work on TCGAGACTTT yielded a switch fluorescence ratio of 0.964.
For GATCATGGTC, the switch fluorescence ratio was 1.03.
For TTAAGGTTGT, the switch fluorescence ratio was 0.971.
AGGATAAAAT was tested, and the switch fluorescence ratio was 0.991.
With TCATTTAACG the switch fluorescence ratio was 0.978.
With CTACGTCTAG the switch fluorescence ratio was 1.04.
In the case of TGAGTCAATA, the switch fluorescence ratio is reported as 1.1.
In the case of TTTGAATCAT, the switch fluorescence ratio is reported as 1.02.
For CCGCGGGAGC, the switch fluorescence ratio was 1.21.
Work on CCGGGACACA yielded a switch fluorescence ratio of 1.05.
GGCTAACCCC was tested, and the switch fluorescence ratio was 1.07.
In the case of CAGTGTCCCC, the switch fluorescence ratio is reported as 0.975.
Sequence TACTCTATT has a switch fluorescence ratio of 1.
With TTGCTTACGT the switch fluorescence ratio was 1.05.
In the case of ACCTAGAGTC, the switch fluorescence ratio is reported as 1.1.
In the case of CAGTCATCTG, the switch fluorescence ratio is reported as 0.991.
GCTAGTATTG was tested, and the switch fluorescence ratio was 0.993.
With ATAGGGAACA the switch fluorescence ratio was 1.02.
CGGTTGAGAT gave a switch fluorescence ratio of 1.01.
Work on ATCAGGAGTT yielded a switch fluorescence ratio of 0.976.
For GGAGGGGAT, the switch fluorescence ratio was 1.03.
For GTCTGGGTTA, the switch fluorescence ratio was 0.986.
TTTATAGCTC showed a switch fluorescence ratio of 1.15.
With AACCATCAGG the switch fluorescence ratio was 1.03.
Work on TGATCTGTGG yielded a switch fluorescence ratio of 1.01.
For ATAGCATTTT, the switch fluorescence ratio was 1.05.
Sequence CGATTTTTTA has a switch fluorescence ratio of 1.
AACTGGCCCA was tested, and the switch fluorescence ratio was 0.991.
In the case of ATTTATGAT, the switch fluorescence ratio is reported as 0.96.
TGACGCCGCT gave a switch fluorescence ratio of 1.31.
For CCTTCGGCGG, the switch fluorescence ratio was 1.27.
With TGGGTGATTG the switch fluorescence ratio was 1.02.
CCCTTAGGAA was tested, and the switch fluorescence ratio was 0.99.
In the case of TATTGGTATA, the switch fluorescence ratio is reported as 1.04.
In the case of ATCAGAGTTG, the switch fluorescence ratio is reported as 0.991.
CCACAGTTGA gave a switch fluorescence ratio of 1.24.
For GGAGTAACCG, the switch fluorescence ratio was 0.956.
Sequence GACTTGCAGG has a switch fluorescence ratio of 1.06.
TCGAACTTGC was tested, and the switch fluorescence ratio was 1.11.
TTGATTAGTG gave a switch fluorescence ratio of 0.985.
With TATCGGGCA the switch fluorescence ratio was 0.993.
CTCGGATTCG showed a switch fluorescence ratio of 1.03.
For CCATTCAAAT, the switch fluorescence ratio was 1.02.
With TAGGCTTAA the switch fluorescence ratio was 0.972.
TTGAGCTGAG gave a switch fluorescence ratio of 1.03.
CTCGAATCGG gave a switch fluorescence ratio of 1.
ACGTTTTGCG was tested, and the switch fluorescence ratio was 0.98.
CAACTCGCCC was tested, and the switch fluorescence ratio was 1.13.
GGTGCCCGAG was tested, and the switch fluorescence ratio was 1.01.
With TCCTAAAAGG the switch fluorescence ratio was 0.988.
For CAAGGGATTA, the switch fluorescence ratio was 0.969.
For AGGGCCGGTG, the switch fluorescence ratio was 0.981.
TAAGTGTGCA showed a switch fluorescence ratio of 0.994.
Work on GACGTCTCGC yielded a switch fluorescence ratio of 1.06.
With GTGCGTGTAA the switch fluorescence ratio was 0.988.
Sequence TTCTTAGGCA has a switch fluorescence ratio of 1.
Sequence CGGGTTCACT has a switch fluorescence ratio of 1.09.
GCACGTGTCC gave a switch fluorescence ratio of 0.99.
Work on GCGATTGTGG yielded a switch fluorescence ratio of 1.01.
For TCAAACCCCA, the switch fluorescence ratio was 1.06.
In the case of TTAGAGTTA, the switch fluorescence ratio is reported as 0.995.
Sequence GCTGGAGAGG has a switch fluorescence ratio of 1.06.
For ATTCTTGTTT, the switch fluorescence ratio was 1.02.
ATAGATCAA showed a switch fluorescence ratio of 1.04.
For CATCCCCGCG, the switch fluorescence ratio was 1.89.
TACCCCTTGC gave a switch fluorescence ratio of 1.08.
GGGGCCTACT gave a switch fluorescence ratio of 0.946.
TAGGGACGGA showed a switch fluorescence ratio of 1.06.
TTTAGACGCC was tested, and the switch fluorescence ratio was 1.07.
AGTCGAGCCA showed a switch fluorescence ratio of 1.02.
TGGGGGTCG gave a switch fluorescence ratio of 1.05.
With AGCGTGGTTG the switch fluorescence ratio was 0.964.
In the case of TTGCGTAGCT, the switch fluorescence ratio is reported as 1.06.
TATATTTTTG was tested, and the switch fluorescence ratio was 1.08.
Work on TTTCGCTA yielded a switch fluorescence ratio of 1.08.
For CCTGCAGGGT, the switch fluorescence ratio was 1.3.
TTCTCAGCCT gave a switch fluorescence ratio of 1.07.
TGAGCGTCCG was tested, and the switch fluorescence ratio was 1.03.
AAAAGTTCAT gave a switch fluorescence ratio of 1.01.
Work on TTGGTCCGAT yielded a switch fluorescence ratio of 0.996.
With CTTACGGACA the switch fluorescence ratio was 1.1.
In the case of TTATAAGTAA, the switch fluorescence ratio is reported as 1.08.
Work on ATGGGCTACT yielded a switch fluorescence ratio of 0.961.
For GCAGTTCTGA, the switch fluorescence ratio was 0.988.
For TTCGTAGGAG, the switch fluorescence ratio was 0.994.
With TGCGGGGACC the switch fluorescence ratio was 1.09.
Work on CATAGAGGGG yielded a switch fluorescence ratio of 0.991.
With TTAAGCCGTC the switch fluorescence ratio was 1.06.
Work on GGGTGTAACC yielded a switch fluorescence ratio of 1.03.
TTAGGTGTGT showed a switch fluorescence ratio of 1.06.
CAAGATAAGT gave a switch fluorescence ratio of 1.02.
Work on GAGACAGCAT yielded a switch fluorescence ratio of 1.05.
GGCCTTTGTC was tested, and the switch fluorescence ratio was 1.04.
GGTGGGACCG gave a switch fluorescence ratio of 0.993.
With CGTGATGGGT the switch fluorescence ratio was 1.
For GTACAGAATG, the switch fluorescence ratio was 1.
GGGCTAATCT showed a switch fluorescence ratio of 1.04.
Sequence GCCGCCGGGT has a switch fluorescence ratio of 1.05.
For AGAAGGCGAG, the switch fluorescence ratio was 1.05.
For CGGGCCTAAT, the switch fluorescence ratio was 0.971.
In the case of AACGGCCCGG, the switch fluorescence ratio is reported as 1.08.
In the case of CATATCAGTT, the switch fluorescence ratio is reported as 0.999.
Sequence GCTGCTGGAG has a switch fluorescence ratio of 1.08.
Work on CCGTCTTCGG yielded a switch fluorescence ratio of 0.985.
Work on AGGAGTCCAG yielded a switch fluorescence ratio of 1.04.
Sequence ACAGTTCACT has a switch fluorescence ratio of 1.04.
TTGCAGCTCT was tested, and the switch fluorescence ratio was 1.07.
GTTCATGTAT was tested, and the switch fluorescence ratio was 0.978.
CCAATCAACG gave a switch fluorescence ratio of 1.07.
Sequence CACACGCTTT has a switch fluorescence ratio of 1.17.
For CGCCTAATGG, the switch fluorescence ratio was 1.07.
CCTCAACCAT gave a switch fluorescence ratio of 1.28.
GTACTAGGTG gave a switch fluorescence ratio of 1.8.
For AATGCATGAT, the switch fluorescence ratio was 1.03.
GTATCCACTG gave a switch fluorescence ratio of 0.988.
For GCCGATTTGT, the switch fluorescence ratio was 0.985.
TGAGGTGTTC was tested, and the switch fluorescence ratio was 0.968.
ATACGGATTA was tested, and the switch fluorescence ratio was 1.03.
Work on CGCGTCCAA yielded a switch fluorescence ratio of 1.04.
CCGTCGTCGC showed a switch fluorescence ratio of 0.965.
TAGTCTATAT gave a switch fluorescence ratio of 0.997.
With CATTGCGTTA the switch fluorescence ratio was 1.04.
CGAACCCCTA was tested, and the switch fluorescence ratio was 1.13.
For CAGAGAATCG, the switch fluorescence ratio was 0.996.
For GCACATGGTA, the switch fluorescence ratio was 1.01.
In the case of CACCGATGTA, the switch fluorescence ratio is reported as 1.05.
Work on TAGGTTC yielded a switch fluorescence ratio of 0.92.
TCGACACAAA gave a switch fluorescence ratio of 1.53.
For TAGCTCTTC, the switch fluorescence ratio was 0.958.
CACGTGTTTC was tested, and the switch fluorescence ratio was 0.998.
AACCTAATAT was tested, and the switch fluorescence ratio was 1.06.
In the case of TAGTCATCGA, the switch fluorescence ratio is reported as 1.03.
For TGGCGAGATT, the switch fluorescence ratio was 1.04.
AAGGAGTAGT showed a switch fluorescence ratio of 1.05.
GTTCGAGGGA was tested, and the switch fluorescence ratio was 0.977.
For AAGGTTAACG, the switch fluorescence ratio was 0.981.
Work on TCAATCCACT yielded a switch fluorescence ratio of 1.03.
Sequence GAGCTTTTAT has a switch fluorescence ratio of 1.03.
CACTGCAGGC showed a switch fluorescence ratio of 1.6.
In the case of AACTATGGA, the switch fluorescence ratio is reported as 1.
With TCCGATTTTG the switch fluorescence ratio was 0.998.
Sequence TGGGGCGCAA has a switch fluorescence ratio of 2.86.
With GGATCATGAT the switch fluorescence ratio was 1.
In the case of CGGAGTCGTG, the switch fluorescence ratio is reported as 1.05.
CAATCGGTGT gave a switch fluorescence ratio of 1.01.
In the case of AGCCGTGGTA, the switch fluorescence ratio is reported as 0.911.
With ATAATAGGAG the switch fluorescence ratio was 1.01.
With CCATATTTCA the switch fluorescence ratio was 1.03.
Work on CGTGCGAGGG yielded a switch fluorescence ratio of 0.992.
